The campaign covered roughly 310,000 compounds. About 14,000 (4.5%) showed an effect of 50% or more. The effect is printed as a negative number. Some of the results follow.
Target: human ether-à-go-go-related gene (hERG) potassium channel (human, UniProt Q12809)
Test: primary screen, population patch clamp on CHO cells stably expressing hERG
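Also: peak tail current of the secondary pulse compared with the same well before compound.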

Chain of human ether-à-go-go-related gene (hERG) potassium channel (Q12809 whole entry, looked up): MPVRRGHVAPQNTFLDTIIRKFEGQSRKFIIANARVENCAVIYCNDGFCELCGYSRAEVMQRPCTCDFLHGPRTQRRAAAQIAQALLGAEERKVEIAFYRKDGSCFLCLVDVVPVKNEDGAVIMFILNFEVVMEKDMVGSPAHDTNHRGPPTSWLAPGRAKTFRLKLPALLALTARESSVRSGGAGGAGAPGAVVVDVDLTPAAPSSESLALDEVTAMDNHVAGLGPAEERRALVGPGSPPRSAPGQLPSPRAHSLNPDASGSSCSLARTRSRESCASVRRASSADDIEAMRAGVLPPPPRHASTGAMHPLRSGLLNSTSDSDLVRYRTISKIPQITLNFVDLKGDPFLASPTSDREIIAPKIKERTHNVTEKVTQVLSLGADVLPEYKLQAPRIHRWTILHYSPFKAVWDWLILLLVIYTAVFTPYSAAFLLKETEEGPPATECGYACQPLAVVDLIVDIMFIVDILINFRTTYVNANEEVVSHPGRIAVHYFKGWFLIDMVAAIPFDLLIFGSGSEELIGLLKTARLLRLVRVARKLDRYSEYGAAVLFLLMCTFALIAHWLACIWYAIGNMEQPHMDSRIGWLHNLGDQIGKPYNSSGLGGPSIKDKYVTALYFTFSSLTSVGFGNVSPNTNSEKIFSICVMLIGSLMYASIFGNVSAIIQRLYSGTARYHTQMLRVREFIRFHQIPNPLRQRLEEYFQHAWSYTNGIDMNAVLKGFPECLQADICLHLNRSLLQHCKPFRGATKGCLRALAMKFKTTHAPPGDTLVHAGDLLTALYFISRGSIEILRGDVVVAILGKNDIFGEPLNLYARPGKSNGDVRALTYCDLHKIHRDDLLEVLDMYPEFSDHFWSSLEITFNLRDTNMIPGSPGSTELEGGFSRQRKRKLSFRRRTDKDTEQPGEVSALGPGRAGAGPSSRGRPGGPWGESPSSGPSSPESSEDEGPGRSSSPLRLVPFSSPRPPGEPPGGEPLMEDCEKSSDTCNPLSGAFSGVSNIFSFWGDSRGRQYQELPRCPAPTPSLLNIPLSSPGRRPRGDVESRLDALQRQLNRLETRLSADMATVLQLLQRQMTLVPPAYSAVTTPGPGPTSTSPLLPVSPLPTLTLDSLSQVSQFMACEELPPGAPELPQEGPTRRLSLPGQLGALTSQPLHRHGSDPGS

Compound | hERG current change (%, negative = inhibition) at 10uM
COc1ccccc1Nc1nc(-c2sc(NC(=O)C(C)(C)C)nc2C)cs1 | 13.8%
CCOC(=O)c1cc(-c2ccccc2)sc1NC(=O)C(C)OC(=O)c1ccncc1 (stereo not shown) | 6.25%
C=C(C)CN(CC)CCC(=O)Nc1ccc(OC)cc1OC.Cl | -1.84%
COc1ccc(S(=O)(=O)N2CCCCCC2)cc1C(=O)Nc1ccc(C)cn1 | 11.8%
Cc1ccc(CNC(=O)CCS(=O)(=O)c2ccc(Cl)cc2)cc1 | -2.65%
CCNc1cc(N2CCNCC2)ccc1[N+](=O)[O-] | -4.4%
CC(C)c1ccc(N(CC(=O)NC2CCCC2)C(=O)CCC(=O)Nc2ccccn2)cc1 | -15.2%
Cc1cc(C)cc(NC(=O)CSc2nc(CSc3ccc(Cl)cc3)cc(=O)[nH]2)c1 | 8.35%
CCn1c(-c2cccn(Cc3ccc(Cl)cc3Cl)c2=O)n[nH]c1=S | 16.9%
CN1CCN(Cc2nnc(-c3ccccc3)o2)CC1 | 22.7%
COc1ccccc1C(=O)Nc1ccc(OCC(=O)N2CCCCC2C)cc1 (stereo not shown) | 1.76%
COc1ccc(/C=C(\NC(=O)c2ccco2)C(=O)NCCc2nc3ccccc3[nH]2)cc1 | -42.6%
CC(=O)NC12CC3CC(C1)CC(C(=O)N1CCN(c4ncccn4)CC1)(C3)C2 | 15.1%
CCOC(=O)c1ccc(N2C(=O)CC(NNC(=O)c3ccc(Br)s3)C2=O)cc1 (stereo not shown) | 15.8%
Cc1sc(N2CCN(S(=O)(=O)c3ccc4c(c3)NC(=O)CO4)CC2)nc1-c1ccccc1 | 17.1%
O=C(Oc1ccc(-c2nc(-c3ccccn3)no2)cc1)c1ccccc1 | 7.73%
O=C(CSc1ccc2ccccc2c1)NCc1cccs1 | 7.31%
COc1cccc(-c2ccc(SCC(=O)N3CCN(c4ccccc4)CC3)nn2)c1 | -37.4%
O=C(/C=C/c1cccc([N+](=O)[O-])c1)NC(=S)Nc1ccc(CN2CCOCC2)cc1 | 1.82%
CCOC(=O)C1CCN(C(=O)c2cc(-c3ccncc3)nc3ccccc23)CC1 | -67.2%
COc1cccc2cccc(/C=N/n3cnnc3)c12 | -12.7%
CCc1nnc(NC(=O)c2ncc(Cl)c(Cl)c2Cl)s1 | 12.9%

Compound | hERG current change (%, negative = inhibition) at 10uM
O=[N+]([O-])c1ccc(C[n+]2cccc3c4ccccc4ccc32)cc1.[Br-] | -40.5%
CCOc1ccc(NC(=O)c2cnccn2)cc1 | -2.81%
CN(c1ccccc1)S(=O)(=O)c1cccc(NC(=O)c2ccncc2)c1 | -24.9%
COc1ccc(NC(=O)c2cccc3c2C(=O)N(CC2CCCO2)C3)cc1OC (stereo not shown) | -17.9%
CC(=O)c1ccc(N2CCN(C(=O)c3ccc(Br)cc3)CC2)c(F)c1 | -47.8%
O=C(/C=C/c1cccc([N+](=O)[O-])c1)Nc1ccc(Cl)cn1 | -12.1%
O=C(Cn1c(O)c(N=NC(=O)c2ccncc2)c2ccccc21)Nc1ccccc1 | -7.1%
Cc1cccc[n+]1CC(=O)Nc1ccc([N+](=O)[O-])cc1.[Cl-] | -0.368%
CC(=O)OC1CC(C)N(C(=O)c2ccccc2)c2ccc(C)cc21 (stereo not shown) | -1.74%
CCc1c2c(nc3ccc(OC(=O)N4CCC(N5CCCCC5)CC4)cc13)-c1cc3c(c(=O)n1C2)COC(=O)[C@]3(O)CC.Cl.O | 12.8%
CCOc1ccc(S(=O)(=O)NC(C)C)cc1C(N)=O | 20.9%
COc1cccc2cc(C(=O)NCc3ccc(Cl)cc3)c(=O)oc12 | 14.4%
Cc1ccc(S(=O)(=O)N2CC(C)C(=O)CC2C)cc1 (stereo not shown) | 4.46%
Cc1cc(C(=O)COC(=O)Cc2n[nH]c(=O)c3ccccc23)c(C)n1-c1cccc(C(F)(F)F)c1 | -7.28%
CCCCCCc1cc2cc(-c3nnc(-c4ccccc4)o3)c(=O)oc2cc1O | 5.15%
O=c1c(C(c2ccccc2)c2c(O)nc3n(c2=O)CCS3)c(O)nc2n1CCS2 | 4.21%
COc1ccc(/C=C/C(=O)Oc2ccc(C)c(C)c2)cc1OC | -15.5%
Cc1nnc(N)s1 | 16.4%
CC(NC(=O)c1cc2ccccc2o1)C(=O)O (stereo not shown) | 12%
Cc1nonc1OCC(C)(COc1nonc1C)NC(=O)c1ccc(Cl)cc1 | -61.1%
O=C(COC(=O)c1cc([N+](=O)[O-])ccc1NCCO)c1ccccc1 | -15.9%
O=C(NCCSc1ccccn1)c1ccc(Cl)cc1Cl | -11.4%

Compound | hERG current change (%, negative = inhibition) at 10uM
COc1ccc(N2C(=O)CC(C)(C)CC2=O)cc1OC | 16%
Cc1cc(C)nc(SCC(=O)NN=C2CCCC2)n1 | 34.2%
CN(C)C(CNC(=O)c1ccc(NC(=O)CC#N)cc1)c1ccccc1 (stereo not shown) | 2.86%
CCN(CC(=O)Nc1ccc(NC(C)=O)cc1)C(=O)Cc1cccc2ccccc12 | 4.98%
O=C(C1=C[C@@H](C2CC2)C[C@@H](OCc2ccc(CO)cc2)O1)N1CCN(Cc2ccc3c(c2)OCO3)CC1 | -51.7%
Cc1ccc(OCCC(=O)N(CC(=O)Nc2ccccc2C(F)(F)F)Cc2ccco2)cc1 | -15.2%
O=C(NCc1ccco1)C1CCN(S(=O)(=O)c2ccc(-n3cnnn3)cc2)CC1 | -70.5%
O=S(=O)(c1ccc(S(=O)(=O)N2CCC(O)CC2)cc1)N1CCCC1 | 23%
CSc1nc2ccc(NC(=O)c3cc4ccccc4o3)cc2s1 | 26.6%
c1ccc(-c2cn3c(n2)CCC3)cc1 | 7.39%
OCCC1CN(Cc2cnc(-c3ccccc3)s2)CCN1Cc1ccccc1 (stereo not shown) | -57.5%
CCCCn1c(N)c(N(CC(C)C)C(=O)C2CCN(S(=O)(=O)c3ccc(F)cc3)CC2)c(=O)[nH]c1=O | -2.26%
COc1cccc(NC(=S)N(CCCN2CCOCC2)C(C)c2cc3ccccc3o2)c1 (stereo not shown) | -44%
CN1CCN(C2Cc3ccccc3Sc3ccc(Cl)cc32)CC1.O=C([O-])/C=C\C(=O)[O-] (stereo not shown) | -65.9%
COC(=O)c1ccccc1NC(=O)NCc1ccncc1 | 0.204%
Cc1ccc(NC(=S)NCc2ccc(F)cc2)cc1 | 2.33%
Cc1ccc(S(=O)(=O)NC(=O)NN2CC3CCCC3C2)cc1 (stereo not shown) | 24.4%
COc1cccc(OCC(=O)NNC(=O)C(=O)N2CCCC2)c1 | -0.427%
O=C(CCCN1C(=O)C2CC=CCC2C1=O)Nc1ccccc1Cl (stereo not shown) | -13.9%
CC1(C)CC(=O)C2=C(C1)Oc1ncn(CCCO)c(=N)c1C2c1ccccc1 (stereo not shown) | -29%
CCOC(=O)c1c(NC(=O)COC(=O)c2c(C)noc2C)sc2c1CCC2 | 2.68%
CCCCCCCCCSc1n[nH]c(N)n1 | -3.66%

Compound | hERG current change (%, negative = inhibition) at 10uM
CN(CC(=O)N1CCc2ccccc21)S(=O)(=O)c1ccc(Cl)cc1 | -51.2%
CCOc1ccc(-c2cnc(NCc3cccc4ccccc34)n2CCOC)cc1.O=C(O)C(=O)O | -58.8%
Cn1cc(CN2CCN(Cc3ccccc3)C(CCO)C2)c(-c2ccccc2)n1 (stereo not shown) | -37.9%
CCOc1ccc(-c2nnc(SCc3nnc(-c4ccccc4)o3)n2-c2ccccc2F)cc1 | -0.81%
O=Cc1cn(Cc2ccccc2[N+](=O)[O-])c2ccccc12 | -6.81%
CC(C)C(c1nnnn1C1CCCC1)N1c2ccccc2CC1C (stereo not shown) | -13.5%
O=[N+]([O-])c1ccc(Nc2ccccn2)c([N+](=O)[O-])c1 | -4.46%
COc1ccc(-c2nnc(-c3ccc(OCC(C)C)cc3)o2)cc1 | 14.5%
CCN(CC)c1ccc(/C=C/c2nc3ccccc3s2)cc1 | 6.35%
CCCC1(CCC)NC(=O)NC1=O | 20.9%
O=C(Cc1ccc(Cl)cc1)Nc1cccc(S(=O)(=O)Nc2ccccc2F)c1 | 11.9%
C=Cc1ncc(OC)c2c1[nH]c1ccccc12 | 0.633%
Cc1c(NS(=O)(=O)c2ccc(N)cc2)c(=O)n(-c2ccccc2)n1C | 22.1%
CCCCNC(=O)Cc1c(O)c2ccccc2[nH]c1=O | 6.39%
CCOC(=O)C1CCCN(C/C(O)=C(\C#N)c2nc(-c3ccc(Cl)cc3)cs2)C1 (stereo not shown) | -35.3%
CCOc1ccc(NC(=O)c2nc(SCC)ncc2Cl)cc1 | 15%
CCCOc1ccc(C(=O)CCC(=O)NNC(=O)c2cccs2)cc1 | -4.05%
COc1ccc(OCC(=O)N2CCc3ccccc3C2)cc1 | 6.27%
O=c1[nH]nc(C(F)(F)F)c2nnn(Cc3ccccc3Cl)c12 | 14.1%
CCOCCCNC(=O)c1ccc2c(c1)ncn2-c1ccc(C)cc1C | -16.7%
O=C(NCCN1CCNC1=O)C1CCC(=O)N(CCc2ccccc2)C1 (stereo not shown) | 4.81%
O=C(CSc1ccc(-c2ccco2)nn1)c1ccccc1 | -9.74%

From article PMC4336329 (PLoS ONE, 2015)
